Hit rate of the full screen: of about 52,000 compounds, about 4,300 (8.3%) were called active. Rule as the data show it: active = survival mostly below about 52% (no sharp cut-off); inactive = mostly above about 56%. Some of the results follow.
system: DeltatarO mutant; assay: growth inhibition of S. aureus wild type versus tarO mutant, primary screen, teichoic acid synthesis inhibitors, RN4220, OD600 (AID 463173); details: OD600, 18 h, active compounds read low, screened at 18.75 µg/mL (by protocol)

SMILES	survival
Cn1cc(S(=O)(=O)N2CCCCC2)cc1C(=O)N1CCN(c2ccc(F)cc2)CC1	inactive: 55%
Cc1cc(=O)n(CC(=O)NCCC(C)C)c2c1c(C)nn2C	inactive: 75%
Cc1ccc(C)c(S(=O)(=O)c2cnc(SCC(=O)Nc3ccc(F)cc3F)[nH]c2=O)c1	active: 43%
CCc1ccc(NC(=O)CSc2nccn2C2CCCC2)cc1	inactive: 70%
Cc1ccc2oc(C(=O)Nc3nnc(CC(C)C)s3)cc(=O)c2c1	inactive: 63%
O=C(CN(c1cccc(Br)c1)S(=O)(=O)c1ccccc1)N1CCOCC1	inactive: 73%
CCN(CC)c1cc(C)nc2nc(-c3ccc(C)cc3)nn12	active: 43%
Cc1ccc(CN2CCSc3ccc(C(=O)Nc4ccc(F)cc4F)cc32)cc1	inactive: 80%
COc1ccc(N2CCN(C(=O)c3cc4c(=O)n(Cc5ccccc5)ccc4nc3C)CC2)cc1	inactive: 95%
CCc1ccc2nc(N3CCC(C(=O)O)CC3)sc2c1	inactive: 82%
COc1cc(CNCc2c(C(=O)O)c(C)n(Cc3cccc(Cl)c3)c2C)cc(OC)c1OC	inactive: 86%
COc1ccc(Br)cc1CNC(=O)C(C)n1nc(C)n2c(cc3occc32)c1=O (stereo not given)	active: 46%
CCC(C(=O)N1CCN(c2cc(Cl)ccc2C)CC1)n1nc(C)n2c(cc3occc32)c1=O (stereo not given)	inactive: 69%
CCSc1nc2n(n1)C(c1ccc(CC)cc1)C(C(=O)Nc1ccccc1OC)=C(C)N2 (stereo not given)	inactive: 78%
Cc1c(Cl)cccc1-n1c(CCC(=O)O)ccc1-c1cccs1	active: 35%
CCc1cccc(NC(=O)CN2C(=O)CCc3cc(S(=O)(=O)N4CCOCC4)ccc32)c1	inactive: 79%
CCOc1ccc(C(=O)NCc2ccc3c(c2)CCN3C(=O)c2ccccc2)cc1	active: -2%
COc1ccc(-c2onc(C)c2C)cc1S(=O)(=O)NCc1ccco1	inactive: 67%
CCc1ccc(CNC(=O)c2ccc3c(c2)nc2n3CCC(C)C2)cc1 (stereo not given)	inactive: 117%
COc1cccc(C(=O)Nc2cccc(OCc3cc(=O)n4cc(C)ccc4n3)c2)c1	inactive: 92%
CCCCc1nn2c(=O)cc(COC(=O)COc3ccc(C)cc3)nc2s1	inactive: 83%
COc1ccc(C)cc1NC(=O)CN(c1ccccc1)S(=O)(=O)N(C)C	inactive: 78%
Cc1nc2ccc(NC(=O)NCCCO)cc2s1	inactive: 74%

SMILES	survival
COc1ccc(NC(=O)CN2C(=O)COc3ccc(S(=O)(=O)Nc4ccccc4)cc32)cc1	inactive: 96%
CCOC(=O)CN1C(=O)c2ccccc2Sc2ncccc21	inactive: 90%
COc1ccccc1N(CC(=O)NCCSCc1ccccc1)S(C)(=O)=O	inactive: 70%
CCCCc1nn2c(=O)cc(COC(=O)c3cccc(OC)c3)nc2s1	inactive: 117%
COc1ccc2c(c1)cc1c(=O)n(CC(=O)NCc3ccco3)nc(C)n12	inactive: 67%
COc1ccc(-c2cc(C(F)(F)F)nc(SCC(=O)NCc3ccc(OC)c(OC)c3)n2)cc1	inactive: 60%
CCOC(=O)c1ccc(NC(=O)C2CC(=O)NC(Nc3nc4ccccc4s3)=N2)cc1 (stereo not given)	inactive: 94%
CCc1nnc2c(Nc3cccc(C(C)=O)c3)nc3ccccc3n12	inactive: 92%
O=C1C2C3c4ccccc4C(c4ccccc43)C2C(=O)N1C(CO)(CO)CO (stereo not given)	inactive: 102%
CCCOc1ccc(C(=O)Nc2cccc(NC(=O)c3cccc(Cl)c3)c2)cc1	inactive: 70%
CCCCNC(=O)C1CCN(c2nc(OC)nc(OC)n2)CC1	inactive: 83%
CCS(=O)(=O)c1ncc(N(Cc2ccco2)Cc2sccc2C)c(C(=O)Nc2ccc(C)cc2C)n1	active: 53%
CCC12CN3CC(C)(CN(C1)C3c1c[nH]c3ccccc13)C2=O (stereo not given)	inactive: 82%
COc1ccc(/C=C\c2onc(C)c2S(=O)(=O)N2CCC(C(=O)Nc3ccc(C)cc3C)CC2)cc1	inactive: 60%
CCc1ccc(NC(=O)CSC2=Nc3ccccc3C3=NC(CCC(=O)NCCc4ccccc4)C(=O)N23)cc1 (stereo not given)	inactive: 81%
CC1=C(C(=O)Nc2ccc(C)cc2C)C(c2ccc(O)cc2)n2nnnc2N1 (stereo not given)	inactive: 73%
O=C(Nc1ccc(F)cc1Cl)n1ncc2cc(Cl)ccc21	active: 13%
CCC(=O)N1CCc2cc(S(=O)(=O)NC(CC(C)C)C(=O)Nc3cc(C)ccc3OC)ccc21 (stereo not given)	inactive: 76%
Cc1cccc(NCc2nc3ccccc3n2CCOc2ccccc2C)c1	active: 3%
CC(C)N1C(=O)CSC1c1ccccc1 (stereo not given)	inactive: 101%
COc1ccc(NC(=O)c2c(C)oc3ccc(O)c(CN4CCCC4)c23)cc1Cl	inactive: 80%
COc1cc(C(=O)n2nc(-c3ccco3)nc2NCc2ccc(Cl)cc2)cc(OC)c1OC	inactive: 82%
CC(=O)c1cccc(Nc2ccc3cc(S(=O)(=O)N4CCC(C)CC4)ccc3n2)c1	inactive: 92%

SMILES	survival
O=C(COc1ccccc1-c1nnc(-c2ccccc2)o1)Nc1ccc(Br)cc1F	inactive: 84%
CCC(=O)N1CCc2cc(S(=O)(=O)NCCC(=O)Nc3ccc(C)cc3)ccc21	inactive: 82%
CCCNC(=O)CCNS(=O)(=O)c1ccc2c(c1)c(=O)n(C)c(=O)n2C	inactive: 104%
CC1(C)CC(NCC(=O)NC2CC(C)(C)NC(C)(C)C2)CC(C)(C)N1	inactive: 103%
CC(C)c1ccc(-c2nnc3n(CCc4ccccc4)c(=O)c4ccccc4n23)cc1	inactive: 65%
Cc1ccc(CNC(=O)CCc2c(C)nc3nc(CNC(=O)OC(C)(C)C)nn3c2C)cc1	inactive: 82%
CC1CCC(NC(=O)C2(C)Cc3ccccc3C(=O)N2Cc2ccc(F)cc2)CC1 (stereo not given)	inactive: 99%
COc1ccc(C(=O)NCCc2sc(-c3ccc(F)cc3)nc2C)cc1OC	inactive: 55%
CCC(C(=O)NC1CCCCC1)n1c(SCc2ccc(F)cc2)nc2ccncc21 (stereo not given)	inactive: 73%
CCC(Cn1nnc2ccccc2c1=O)NC(=O)Nc1ccc(C)cc1C (stereo not given)	active: 44%
COc1ccc(C(=O)NCC(c2ccc(N(C)C)cc2)N2CCCC2)c(OC)c1 (stereo not given)	inactive: 94%
Cc1cccc(-c2nc(CSc3nncn4c3cc3oc(C)cc34)c(C)o2)c1	inactive: 71%
Cc1nc2cccnc2n1CCNC(=O)Nc1cccc2ccccc12	inactive: 99%
COc1ccccc1OCC(=O)Nc1nc2c(s1)CC(C)CC2 (stereo not given)	inactive: 69%
CC(C)(C)OC(=O)N1CCC(n2nccc2N)CC1	inactive: 90%
CCSc1ncc(Cl)c(C(=O)Nc2c(C(=O)Nc3cccc(C)c3)oc3ccccc23)n1	inactive: 109%
COc1ccc(OC)c(CCNC(=O)c2cc3c(=O)oc4ccc(C)cc4c3s2)c1	inactive: 88%
CC(=O)Nc1ccc(NC(=O)C2CCCN2S(=O)(=O)c2ccc3c(c2)CCCC(=O)N3)cc1 (stereo not given)	inactive: 70%
O=C(Nc1ccc(F)c(Cl)c1)c1cc(S(=O)(=O)N2CCc3ccccc3C2)ccc1F	inactive: 73%
O=C(Nc1ccc2nc(SCc3ccccc3)sc2c1)c1ccccc1F	inactive: 81%
CC1(C)CC(NC(=O)CCCC(=O)O)CC(C)(C)N1	inactive: 81%
COc1ccc(N2CCN(C(=O)CN3C(=O)CSc4c3c(C)nn4-c3ccccc3)CC2)cc1	inactive: 79%
O=C(Nc1ccc2oc(-c3cccnc3)nc2c1)c1ccc(-c2ccc(OC(F)(F)F)cc2)o1	inactive: 79%

SMILES	survival
Cc1ccc(OCC(=O)Nc2ccc3c(c2)nc(CCNC(=O)c2ccco2)n3C)cc1	inactive: 127%
CCCC(=O)n1nc(-c2ccco2)nc1NCc1ccccc1Cl	inactive: 76%
CC(C)CCNC(=O)c1ccc2c(c1)N(Cc1cccc(Cl)c1)C(=O)c1ccccc1S2	inactive: 83%
O=C(Nc1nnc(S(=O)(=O)N2CCOCC2)s1)c1ccccc1Cl	inactive: 79%
Cc1cc2nn(-c3ccc(F)cc3)nc2cc1NC(=O)c1cccc2ccccc12	inactive: 68%
Cc1cc(C)n2ncc(C(=O)Nc3ccc(C)c(C)c3)c2n1	inactive: 110%
Cc1nnc(N2CCCC(C(=O)NCc3ccccc3F)C2)c2nn(-c3ccc(Cl)cc3)c(C)c12 (stereo not given)	inactive: 89%
COc1ccc(C(=O)NCc2nnc(SCC(=O)Nc3ccccc3)n2-c2ccccc2)cc1	inactive: 85%
O=C(CSc1n[nH]c(-c2ccccc2)n1)NCCCc1ccccc1	inactive: 92%
Cc1ccc(-n2nnc(-c3nsc(NC(=O)c4cccc(Cl)c4)n3)c2C)cc1C	inactive: 76%
COc1cc(Cl)c(C)cc1NC(=O)c1ccc2c(SCC(=O)O)c3c(nc2c1)CCCC3	active: 41%
Cc1ccccc1N1CC(C(=O)Nc2ccc(Br)cc2)CC1=O (stereo not given)	inactive: 130%
COCCCNc1nc2cc(OC)c(OC)cc2c2nc(-c3ccccc3)nn12	active: 47%
COc1ccc(-c2nnn(CC(=O)N(CC(=O)NCc3ccccc3)c3ccc4c(c3)OCCO4)n2)cc1OC	inactive: 69%
COc1ccc(CNC(=O)CN2N=C(c3ccccc3)CCC2=O)c(OC)c1	inactive: 94%
CCn1c(=O)c(=O)n(CC)c2cc(N3CCCCC3)c(NC(=O)c3ccc(Cl)cc3)cc21	inactive: 123%
CCN(C(=O)c1cc2c(=O)oc3ccc(C)cc3c2s1)c1cc(OC)ccc1OC	inactive: 78%
CCOc1ccc2[nH]c(=O)c(CN(CCOC)C(=O)NC3CCCCC3)cc2c1	inactive: 100%
CCN(CC)CCNC(=O)c1ccc2c(c1)NC(=O)C(CS(=O)(=O)Cc1cccc(Br)c1)N2 (stereo not given)	inactive: 126%
COc1ccc(-c2nc3cc(C(C)C)ccc3o2)cc1NC(=O)COc1ccc(C)cc1C	active: 37%
O=C(Cn1c(=O)c2ccccc2n(CC(=O)Nc2ccc(F)cc2F)c1=O)NCCc1ccccc1	inactive: 81%

Reference: PubChem BioAssay AID463173 (ICCB-Longwood Screening Facility, Harvard Medical School, 2010)
